These are yes or no findings as the source states them, for the method shown.
Assays:
Experiment in all cases: two-hybrid; LexA BD fusions (pLexA) and B42 AD fusions (pB42AD) in yeast EGY48; blue colour on 2% Gal/1% raffinose/SD/-Ura/-His/-Trp/-Leu/X-β-Gal medium; images after 3 days at 30°C
[1] = biological target: T1, TT8 (Arabidopsis thaliana) (UniProt Q9FT81)
T1 sequence: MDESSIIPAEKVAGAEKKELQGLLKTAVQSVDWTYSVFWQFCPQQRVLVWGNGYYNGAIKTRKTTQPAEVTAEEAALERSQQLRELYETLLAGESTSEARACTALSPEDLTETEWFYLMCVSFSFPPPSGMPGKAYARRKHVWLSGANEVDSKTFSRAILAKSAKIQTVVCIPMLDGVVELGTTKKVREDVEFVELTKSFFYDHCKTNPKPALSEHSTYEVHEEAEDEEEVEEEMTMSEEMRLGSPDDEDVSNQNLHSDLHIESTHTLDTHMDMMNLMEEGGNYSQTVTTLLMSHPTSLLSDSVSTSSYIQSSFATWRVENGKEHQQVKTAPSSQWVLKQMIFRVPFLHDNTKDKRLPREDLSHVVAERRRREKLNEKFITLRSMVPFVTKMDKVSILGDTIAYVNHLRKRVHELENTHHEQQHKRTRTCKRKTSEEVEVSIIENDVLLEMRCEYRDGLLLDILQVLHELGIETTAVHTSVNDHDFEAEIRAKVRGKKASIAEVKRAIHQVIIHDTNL

Sequences of proteins named here, by UniProt entry; tags and fusion partners are left off.
UniProt Q39204: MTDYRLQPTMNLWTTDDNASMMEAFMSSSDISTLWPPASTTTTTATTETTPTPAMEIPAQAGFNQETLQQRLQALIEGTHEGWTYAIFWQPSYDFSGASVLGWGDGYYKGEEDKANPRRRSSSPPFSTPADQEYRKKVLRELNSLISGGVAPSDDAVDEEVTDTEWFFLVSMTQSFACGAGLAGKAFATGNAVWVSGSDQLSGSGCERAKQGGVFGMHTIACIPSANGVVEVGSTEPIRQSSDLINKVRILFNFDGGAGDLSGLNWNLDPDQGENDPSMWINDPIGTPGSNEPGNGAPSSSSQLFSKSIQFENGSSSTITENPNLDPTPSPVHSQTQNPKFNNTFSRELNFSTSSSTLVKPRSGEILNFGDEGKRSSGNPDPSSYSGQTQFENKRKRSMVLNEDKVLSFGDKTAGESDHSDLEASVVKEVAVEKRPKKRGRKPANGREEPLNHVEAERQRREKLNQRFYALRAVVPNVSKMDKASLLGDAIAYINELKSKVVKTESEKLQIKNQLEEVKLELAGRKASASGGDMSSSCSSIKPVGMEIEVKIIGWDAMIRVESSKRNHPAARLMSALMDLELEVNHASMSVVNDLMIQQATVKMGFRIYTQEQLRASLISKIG
UniProt Q9FIP9: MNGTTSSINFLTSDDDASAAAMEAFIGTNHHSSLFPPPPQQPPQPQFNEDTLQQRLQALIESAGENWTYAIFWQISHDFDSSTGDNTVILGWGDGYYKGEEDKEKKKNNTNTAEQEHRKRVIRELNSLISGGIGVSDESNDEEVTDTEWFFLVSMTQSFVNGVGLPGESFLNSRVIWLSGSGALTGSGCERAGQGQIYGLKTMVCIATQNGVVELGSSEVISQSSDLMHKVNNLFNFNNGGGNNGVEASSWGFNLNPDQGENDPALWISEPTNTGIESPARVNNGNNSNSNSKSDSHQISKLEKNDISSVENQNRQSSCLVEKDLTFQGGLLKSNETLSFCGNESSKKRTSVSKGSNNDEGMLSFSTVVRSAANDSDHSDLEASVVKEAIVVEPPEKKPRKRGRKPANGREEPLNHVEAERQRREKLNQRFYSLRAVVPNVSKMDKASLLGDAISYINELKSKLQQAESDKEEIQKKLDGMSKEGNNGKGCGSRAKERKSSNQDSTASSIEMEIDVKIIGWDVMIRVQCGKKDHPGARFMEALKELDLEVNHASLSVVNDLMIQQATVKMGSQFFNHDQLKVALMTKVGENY
UniProt O23487: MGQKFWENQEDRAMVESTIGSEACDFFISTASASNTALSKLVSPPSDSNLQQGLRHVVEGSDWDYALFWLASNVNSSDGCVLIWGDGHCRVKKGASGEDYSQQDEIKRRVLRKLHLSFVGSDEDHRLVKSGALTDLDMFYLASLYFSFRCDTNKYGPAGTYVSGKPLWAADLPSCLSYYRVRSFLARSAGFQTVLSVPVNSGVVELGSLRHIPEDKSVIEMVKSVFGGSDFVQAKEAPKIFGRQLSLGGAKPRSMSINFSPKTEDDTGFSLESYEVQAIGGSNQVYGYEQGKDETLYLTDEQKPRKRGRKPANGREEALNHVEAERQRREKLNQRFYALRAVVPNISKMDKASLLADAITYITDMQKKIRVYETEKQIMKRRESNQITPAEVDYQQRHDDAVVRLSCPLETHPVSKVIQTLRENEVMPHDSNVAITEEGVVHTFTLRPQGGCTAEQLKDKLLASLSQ
UniProt Q9LNJ5: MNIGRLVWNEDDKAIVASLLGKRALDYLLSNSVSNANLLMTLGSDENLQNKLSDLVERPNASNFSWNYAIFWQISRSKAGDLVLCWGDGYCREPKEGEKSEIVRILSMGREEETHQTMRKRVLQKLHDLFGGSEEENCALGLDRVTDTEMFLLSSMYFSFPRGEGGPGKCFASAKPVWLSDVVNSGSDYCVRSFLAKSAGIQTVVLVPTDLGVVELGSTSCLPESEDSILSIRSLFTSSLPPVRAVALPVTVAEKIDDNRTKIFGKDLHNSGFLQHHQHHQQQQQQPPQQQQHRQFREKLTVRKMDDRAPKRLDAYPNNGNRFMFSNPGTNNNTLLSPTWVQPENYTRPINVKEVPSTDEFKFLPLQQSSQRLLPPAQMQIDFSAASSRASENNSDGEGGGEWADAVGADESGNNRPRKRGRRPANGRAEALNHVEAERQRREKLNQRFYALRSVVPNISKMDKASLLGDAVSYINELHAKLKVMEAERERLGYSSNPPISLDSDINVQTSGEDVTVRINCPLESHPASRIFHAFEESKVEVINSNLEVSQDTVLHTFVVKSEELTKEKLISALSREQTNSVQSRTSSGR
UniProt Q9ZPY8: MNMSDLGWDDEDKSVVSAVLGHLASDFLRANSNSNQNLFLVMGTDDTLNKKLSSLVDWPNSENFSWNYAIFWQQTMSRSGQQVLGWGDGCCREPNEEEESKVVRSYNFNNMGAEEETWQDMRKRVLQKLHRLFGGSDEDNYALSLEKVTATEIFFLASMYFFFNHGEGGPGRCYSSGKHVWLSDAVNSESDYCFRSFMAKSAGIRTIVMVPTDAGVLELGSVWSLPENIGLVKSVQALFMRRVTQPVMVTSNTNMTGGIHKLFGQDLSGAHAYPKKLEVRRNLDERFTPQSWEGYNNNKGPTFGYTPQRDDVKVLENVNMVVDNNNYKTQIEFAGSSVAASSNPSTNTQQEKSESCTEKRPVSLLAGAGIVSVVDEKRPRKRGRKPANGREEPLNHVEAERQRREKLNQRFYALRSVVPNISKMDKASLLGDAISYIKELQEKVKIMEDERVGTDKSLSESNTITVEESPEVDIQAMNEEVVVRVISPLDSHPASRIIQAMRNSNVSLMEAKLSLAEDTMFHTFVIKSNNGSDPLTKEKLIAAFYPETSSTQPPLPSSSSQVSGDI

[2] = biological target: MYC2 (Arabidopsis thaliana) (UniProt Q39204)
[3] = biological target: T2, TTG1 (Arabidopsis thaliana) (UniProt Q9XGN1)
T2 sequence: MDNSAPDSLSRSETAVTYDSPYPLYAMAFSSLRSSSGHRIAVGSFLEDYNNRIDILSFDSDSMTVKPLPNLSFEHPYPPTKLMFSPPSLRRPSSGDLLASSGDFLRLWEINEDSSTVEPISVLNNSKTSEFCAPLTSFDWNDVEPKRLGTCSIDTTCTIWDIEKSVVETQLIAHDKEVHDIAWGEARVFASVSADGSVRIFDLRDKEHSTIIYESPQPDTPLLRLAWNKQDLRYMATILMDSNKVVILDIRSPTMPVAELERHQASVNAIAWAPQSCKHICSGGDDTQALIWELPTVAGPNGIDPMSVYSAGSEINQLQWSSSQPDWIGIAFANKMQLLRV

[4] = biological target: T3, GL3 (Arabidopsis thaliana) (UniProt Q9FN69)
T3 sequence: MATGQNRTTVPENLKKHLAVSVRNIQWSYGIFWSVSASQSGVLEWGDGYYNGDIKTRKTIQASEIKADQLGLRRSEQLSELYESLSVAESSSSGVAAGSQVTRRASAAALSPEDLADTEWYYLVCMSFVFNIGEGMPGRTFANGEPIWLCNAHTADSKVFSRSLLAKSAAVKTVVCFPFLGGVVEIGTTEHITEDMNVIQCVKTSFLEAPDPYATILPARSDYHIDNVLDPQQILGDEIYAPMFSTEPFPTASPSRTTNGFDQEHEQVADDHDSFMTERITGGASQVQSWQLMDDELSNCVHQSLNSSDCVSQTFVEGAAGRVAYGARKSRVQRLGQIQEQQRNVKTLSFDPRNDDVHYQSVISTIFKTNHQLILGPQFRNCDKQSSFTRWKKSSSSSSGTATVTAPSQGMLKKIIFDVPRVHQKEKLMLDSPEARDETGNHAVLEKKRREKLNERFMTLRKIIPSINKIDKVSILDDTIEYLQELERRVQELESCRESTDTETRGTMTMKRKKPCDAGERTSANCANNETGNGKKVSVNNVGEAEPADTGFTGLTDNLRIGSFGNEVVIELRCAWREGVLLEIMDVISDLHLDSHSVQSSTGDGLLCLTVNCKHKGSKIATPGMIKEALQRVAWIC

[5] = biological target: T4, MYB75 (Arabidopsis thaliana) (UniProt Q9FE25)
T4 sequence: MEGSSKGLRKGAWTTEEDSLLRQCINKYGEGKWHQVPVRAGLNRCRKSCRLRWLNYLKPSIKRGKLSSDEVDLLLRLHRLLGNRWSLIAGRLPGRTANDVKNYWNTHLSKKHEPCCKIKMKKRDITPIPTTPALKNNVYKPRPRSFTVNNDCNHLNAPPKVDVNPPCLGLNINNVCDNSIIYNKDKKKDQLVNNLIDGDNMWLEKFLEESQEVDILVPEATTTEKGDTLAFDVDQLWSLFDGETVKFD

[6] = biological target: MYC3 (Arabidopsis thaliana) (UniProt Q9FIP9)

Measured: binding

bHLH3 (from UniProt O23487 1-467)
no binding: all assays above

bHLH13 (from UniProt Q9LNJ5 1-590)
no binding: all assays above

bHLH17 (from UniProt Q9ZPY8 1-566)
no binding: all assays above

Reference: article PMC3723532
